According to publication PMC6919601, “Identification of Plasmodium dipeptidyl aminopeptidase allosteric inhibitors by high throughput screening” (PLoS ONE, 2019):
The whole screen tested about 110,000 compounds, of which about 230 (0.21%) showed an effect of 50% or more. Some of the results follow.

What follows are molecules tested against DPAP1 (Plasmodium falciparum, UniProt Q8IIJ9) (assay: primary screen, percent inhibition; read by cleavage of a fluorogenic dipeptide substrate; higher = more effect of the substance).
Set-up: species or system P. falciparum D10 trophozoite lysates; single well
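Further: 30 min substrate incubation versus DMSO and 10 µM JCP410 controls.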

Chain of DPAP1 (Q8IIJ9 whole entry, looked up): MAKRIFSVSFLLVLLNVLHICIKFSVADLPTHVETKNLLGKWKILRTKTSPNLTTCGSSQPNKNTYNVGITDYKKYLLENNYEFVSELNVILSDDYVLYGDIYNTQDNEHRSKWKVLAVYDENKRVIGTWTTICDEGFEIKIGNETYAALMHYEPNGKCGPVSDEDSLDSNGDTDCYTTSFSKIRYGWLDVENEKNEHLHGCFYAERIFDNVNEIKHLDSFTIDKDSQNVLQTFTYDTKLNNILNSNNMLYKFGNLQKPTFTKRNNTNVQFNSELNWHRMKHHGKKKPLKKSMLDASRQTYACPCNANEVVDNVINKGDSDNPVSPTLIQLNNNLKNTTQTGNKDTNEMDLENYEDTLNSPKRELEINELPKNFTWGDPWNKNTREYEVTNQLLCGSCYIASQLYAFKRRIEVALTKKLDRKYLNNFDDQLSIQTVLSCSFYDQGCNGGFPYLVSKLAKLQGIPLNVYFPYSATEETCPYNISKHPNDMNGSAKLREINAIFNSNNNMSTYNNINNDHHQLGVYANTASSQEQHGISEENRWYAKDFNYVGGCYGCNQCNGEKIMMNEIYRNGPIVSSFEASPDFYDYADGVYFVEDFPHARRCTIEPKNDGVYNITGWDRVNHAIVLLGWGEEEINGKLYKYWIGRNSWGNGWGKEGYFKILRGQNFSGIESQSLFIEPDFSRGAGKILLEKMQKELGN

| Structure (SMILES) | % Inhibition @ 10 uM |
| --- | --- |
| COc1ccc(OC)c(CNc2ccc(Br)c(C)c2)c1 | 3.27% |
| Cc1c(CNC(=O)c2cc3nc(-c4cccs4)cc(C(F)(F)F)n3n2)cnn1C | -2.9% |
| CC(CC(=O)N1CCN(S(=O)(=O)c2ccc(Cl)cc2)CC1)n1cncn1 (stereo not drawn) | -2.05% |
| Nc1ccccc1C(=O)NCCCCNC(=O)c1ccccc1N | -0.28% |
| CCSc1nc2ccc(OC)cc2cc1C#N | -0.864% |
| Cc1nn(C(C)C(=O)NCCN(C)C)c(=O)c2c1sc1ccccc12 (stereo not drawn) | -4.93% |
| CCc1nn(CCCC(=O)NCCC(C)C)c(=O)c2cc3occc3n12 | -3.79% |
| COc1ccccc1CNC(=O)CC(C)C | -6.24% |
| CC(C)CC(NC(=O)NCc1ccncc1)C(=O)NCC#N (stereo not drawn) | 0.744% |
| O=C(CSCc1c(Cl)cccc1Cl)Nc1ccc(C(=O)O)cc1 | 2.67% |
| COc1cc(CN2CCN(S(=O)(=O)c3ccc(Cl)cc3)CC2)ccc1OCc1ccccc1 | 3.47% |
| COc1ccc(N2CCN(Cc3cc(Br)ccc3OC)CC2)cc1 | 1.38% |
| CC1=C(C#N)C(c2ccccc2F)C2=C(c3ccccc3C2=O)N1C (stereo not drawn) | -5.63% |
| CCCOc1ccc(C(=O)Nc2ccccc2N2CCN(C(=O)C(C)C)CC2)cc1 | 0.316% |
| COc1ccc(-c2nc3ccccc3o2)cc1OC | 1.57% |
| Nc1nonc1C(=O)OCC(=O)N1CCCCC1 | 4.42% |
| CC(C)(C)OC(=O)N[C@@H](Cc1ccc(O)c([N+](=O)[O-])c1)C(=O)NCC#N | 4.63% |
| CN1C(=O)c2ccccc2C(C(=O)NCc2ccc(F)cc2)C1c1cn(C)c2ccccc12 (stereo not drawn) | 2.93% |
| O=C(c1cnn2c(C(F)(F)F)cc(-c3cccs3)nc12)N1CCC2(CC1)OCCO2 | -2.26% |
| O=C(Cn1ncc2c(Cl)cccc21)NCc1cccs1 | 3.84% |
| N#C/C(=C\c1ccc(Cl)cc1Cl)c1nc(-c2ccc([N+](=O)[O-])cc2)cs1 | -6.18% |
| Cc1ccccc1C1C2=C(O)CCCC2=Nc2nc3ccccc3n21 (stereo not drawn) | 7.8% |
| c1ccc2c(c1)ccc1nc(-c3ccc4c(c3)OCO4)c3c(c12)CCCC3 | -2.69% |
| CCSc1nnc(-c2ccc(C)c(S(=O)(=O)N3CCN(C)CC3)c2)c2ccccc12 | -4.51% |
| CCOC(=O)N1CCN(C(=O)c2oc3ccc(S(=O)(=O)N4CCCCCC4)cc3c2C)CC1 | 2.59% |
| NC(=O)c1cnc2ccccc2n1 | 5.13% |

| Structure (SMILES) | % Inhibition @ 10 uM |
| --- | --- |
| COc1cc2c(cc1OC)C(c1cccc(Br)c1)N(C(C)=O)CC2 (stereo not drawn) | 1.08% |
| Cc1ccccc1C(=O)OC(C)CN1CCN(C)CC1 (stereo not drawn) | -3.63% |
| COc1ccccc1N1CCN(Cc2ccc(N(C)C)cc2)CC1 | 1.63% |
| COc1ccc(C2C(C(=O)c3ccc(F)cc3)=C(O)C(=O)N2Cc2ccco2)cc1OC (stereo not drawn) | 5.52% |
| O=C1C2C3C=CC(C4CC34)C2C(=O)N1CCc1ccccc1 (stereo not drawn) | -4.33% |
| CCc1ccc(C2=Nn3c(nnc3-c3cccc(F)c3)SC2)cc1 | 1.91% |
| Cc1ccc(S(=O)(=O)N2CC=C(c3c(C)n(CC(O)CN4CCCC4)c4ccccc34)CC2)cc1 (stereo not drawn) | 0.66% |
| CCCCNCc1c(C(=O)O)c(C)n(Cc2ccccc2F)c1C | 1.41% |
| Cc1ccc(NC(=O)CN(Cc2ccccc2)S(=O)(=O)c2ccc3nc(C)sc3c2)nc1 | 0.586% |
| CN1CCN(c2ccc3nnc(CCC(=O)Nc4ccccn4)n3n2)CC1 | -3.43% |
| CC1C(=O)CC(c2ccc(Cl)cc2)NC1c1ccc(Cl)cc1 (stereo not drawn) | -0.142% |
| CC(=O)Nc1ccc(CN2CCSCC2)cc1 | -10.3% |
| COc1ccccc1-c1nc(O)c2c(n1)Oc1c(cccc1OC)C2 | 0.655% |
| C=C1C(C(=O)Nc2ccccc2F)C1C(=O)Nc1ccccc1F (stereo not drawn) | 0.512% |
| O=C(CSc1nnc2sc3ccccc3n12)Nc1nccs1 | -4.64% |
| CC(C)C(=O)Nc1ccc(CN2CCOCC2)cc1 | -4.91% |
| CCc1c(C#N)c(N)nc(SCc2ccccc2)c1C#N | 42.7% |
| COC(=O)c1c(NC(=O)COc2ccc(Cl)c(C)c2)sc2c1CCC(C)C2 (stereo not drawn) | 7.63% |
| CC1CN(C2=NC(=O)/C(=C\c3ccc(O)cc3)S2)CC(C)O1 (stereo not drawn) | 2.13% |
| C=CCC(CS(=O)(=O)Cc1ccccc1)C(=O)N[C@@H](CC)C(=O)c1nc2ccccc2o1 (stereo partly drawn) | -1.83% |
| CCOc1ccc(NC(=O)c2ccnn2CC)cc1 | -4.82% |
| O=C(CCC1CCCC1)Nc1ccccc1C(=O)O | -0.519% |
| CC1(C)CC(=O)C2=C(C1)OC(N)=C(C#N)C2c1ccc(Br)s1 (stereo not drawn) | -1.38% |
| CCN(CCO)Cc1csc2ccc(Br)cc12 | 4.22% |
| CSc1ccc(CN2CCCC(CO)C2)cc1 (stereo not drawn) | 4.22% |
| CCc1ccc(CN2CCN(C(=O)c3ccco3)CC2)cc1 | 1.7% |

| Structure (SMILES) | % Inhibition @ 10 uM |
| --- | --- |
| CCc1cc2c(ncn3cnnc23)s1 | -3.75% |
| CCN(CCN(C)C)C1CCN(C)CC1 | -4.75% |
| Cc1ccc(S(=O)(=O)N(CC(=O)NCCc2ccccc2)C2CCCCC2)cc1 | -2.15% |
| CC(C)(C)c1ccc(C(=O)NCCSc2ccccn2)cc1 | 5.58% |
| COc1ccc(C2NC(=O)C(O)=C2C(=O)c2ccc(Cl)cc2)cc1 (stereo not drawn) | -4.16% |
| CCCc1ncc(C(O)c2ccccc2)n1C (stereo not drawn) | -3.74% |
| CCCn1c(=O)c2c(nc3n2CCS3)n(C)c1=O | -6.43% |
| CCSc1cnn(C2CCCCC2)c(=O)c1O | 1.04% |
| COC(=O)c1cnn2c(O)c(Cc3ccccc3C)c(C)nc12 | -3.78% |
| Cc1ccccc1C1OC2(C(=O)c3ccccc3C2=O)C2C(=O)N(c3ccccc3)C(=O)C12 (stereo not drawn) | 3.74% |
| CCC[C@H](NC(=O)[C@H]1CCCC[C@H]1NC(=O)c1ccc(-c2csc(N3CCN(C)CC3)n2)cc1)C(=O)c1nc2ccccc2o1 | -1.61% |
| COc1ccc(S(=O)(=O)N2CCC(NC(=O)NCC3CCCO3)CC2)cc1 (stereo not drawn) | 2.29% |
| COc1cc(OC)cc(-c2nc3nc(C)c(CCC(=O)NCCCN4CCCC4=O)c(C)n3n2)c1 | -4.34% |
| Cc1nn(-c2ccc(Cl)cc2)c(O)c1/C=N/c1ccc(C(=O)O)c(O)c1 | -5.96% |
| Cc1ccc(NC(=O)/C=C/c2ccccc2)c(C)c1 | 3.82% |
| Cc1ccc(OC(C)c2nc(-c3ccc(Br)o3)no2)cc1C (stereo not drawn) | -2.63% |
| CC(=O)c1cccc(NC(=O)c2ccco2)c1 | 0.392% |
| O=c1c2ccccc2n2c(-c3cccnc3)nnc2n1Cc1ccc(F)cc1 | 3.3% |
| CC(C)C[C@@H](NC(=O)c1cccc(NS(=O)(=O)c2ccc3oc4ccccc4c3c2)c1)C(=O)OCc1ccccc1 | -3.97% |
| Cc1nc2ccccc2n1CCc1nc2c3ccccc3nc(SCC(=O)NCc3ccco3)n2n1 | -1.15% |
| O=C(Nc1ccc(Cl)cc1)Nc1cc(Cl)cc(Cl)c1 | 4.33% |
| CC1=C(C(=O)Nc2cccc(C)c2)C(c2ccc(Br)cc2)NC(=O)N1 (stereo not drawn) | 0.219% |
| C=CCOc1ccc(C2c3c(n[nH]c3-c3ccccc3O)C(=O)N2Cc2cccnc2)cc1 (stereo not drawn) | 1.67% |
| COc1cccc(C(=O)N2CCN(Cc3cccc(Cl)c3)CC2)c1 | 4.61% |
| O=C(O)CCS(=O)(=O)c1cccc2cccnc12 | -0.458% |
| COc1cc(CNc2ccccc2)cc(OC)c1OC | -2.03% |

| Structure (SMILES) | % Inhibition @ 10 uM |
| --- | --- |
| O=C(NCC1CCCO1)c1ccc2c(c1)ncn2-c1cccc(F)c1 (stereo not drawn) | 1.2% |
| COc1ccc2nc(NC(=O)C3(S(=O)(=O)c4ccc(C)cc4)CC3)sc2c1 | -1.29% |
| O=c1nc2s/c(=C\C3=Cc4ccccc4OC3)c(=O)n2nc1Cc1ccc(Cl)cc1 | 5.5% |
| CCOc1ccc(C(=O)CSc2nc3ccccc3[nH]2)cc1[N+](=O)[O-] | 20.6% |
| CNC(=O)c1c(/N=C/c2ccccc2O)sc2c1CCCC2 | -2.98% |
| O=C(NC12CC3CC(CC(C3)C1)C2)C1CCS(=O)(=O)C1 (stereo not drawn) | 0.528% |
| Cc1ccc(C(=O)Nc2ccc(N3CCCC3)c(Cl)c2)cc1 | -3.47% |
| O=C(NCc1ccc2c(c1)OCO2)c1cc(-c2ccccc2)nc2ccccc12 | -3.94% |
| O=C1/C(=C\c2ccco2)N2CCC1CC2 | -1.29% |
| O=C(CSC(=S)N1CCOCC1)c1ccccc1 | -1.99% |
| O=C(Cn1ncc2ccccc2c1=O)Nc1nnc(CC(=O)N2CCOCC2)s1 | -2.84% |
| COc1ccc(-c2nc3ccccc3c(=O)n2-c2cccnc2)cc1 | 2.43% |
| COc1cccc(CSc2nc3ccccc3c3nc(CCn4nc(C)cc4C)nn23)c1 | 2.73% |
| O=[N+]([O-])c1ccc(CSc2ccc(Cl)cc2)cc1 | 2.22% |
| CC(=O)Nc1cccc(NC(=O)c2ccccc2F)c1 | -8.76% |
| COc1cccc(Oc2cc(O)nc(N)n2)c1 | -0.436% |
| COc1ccccc1CNC(=O)c1cccc(F)c1 | -4.15% |
| COC(=O)C1=CN(C)C=C(C(=O)OC)C1c1ccc(OC)c(Br)c1 | -1.48% |
| Cc1c(CNCc2cccnc2)c(C(=O)O)c(C)n1Cc1ccccc1F | -0.23% |
| CC1=C(C(=O)Nc2ccccc2)C(c2ccc(Cl)cc2)NC(=O)N1 (stereo not drawn) | -4.98% |
| Cc1ccc(OCC(=O)NC2CC(C)(C)NC(C)(C)C2)c(Br)c1 | -5.28% |
| COc1cc(C(=O)Nc2cc(C)c(OCC(=O)N3CCOCC3)c(C)c2)cc(OC)c1OC | 5.12% |
| COC(=O)c1cccc(NC2=C(N3CCCCC3)C(=O)c3ccccc3C2=O)c1 | -4.75% |
| Cc1ccc2n1CCNC2 | -2.77% |
